# According to the supplement of paper PMC3334620:
# The full ranking holds about 33,000 sequences; the median of “E-score (-0.5 to 0.5)” is about -0.016, and the highest 2% start at about 0.31. Some of the results follow.
# Biological target: Cst6 (UniProt P40535)
# Assay: PBM E-score (8-mer binding enrichment) (E-score (-0.5 to 0.5)); higher = stronger / more preferred TF binding; most listed sequences are background and not binding sites
# Settings: protein concentration: 200 nM; construct: GST-DNA-binding domain
# Procedure: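 Universal 'all 10-mer' protein binding microarrays (Agilent AMADID 015681) probed with GST-tagged S. cerevisiae TFs (full-length or DBD) made by in vitro transcription/translation (PURExpress), about 100-200 nM. Bound TF was detected with fluorescent anti-GST. Each ungapped 8-mer (which stands for itself and its reverse complement) is scored by the PBM enrichment score (E-score), a modified Wilcoxon-Mann-Whitney statistic from -0.5 to +0.5, computed with the Universal PBM Analysis Suite. Scale: above 0.35 generally sequence-specific binding.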
row,Sequence,PBM E-score
1,AAGCCTGT,-0.0963
2,CGACTGTC,-0.154
3,CGCCGCAC,0.258
4,CTGCCACA,-0.121
5,ACGCTCAA,0.0731
6,CGCGCCCG,-0.265
7,AGCACAAG,-0.151
8,AGATCCGA,-0.0352
9,ATTTCCGC,-0.00519
10,CGAGAGCA,0.0243
11,AATTTCCC,-0.0382
12,AGACCGGA,-0.142
13,ATCCCCTA,-0.332
14,AACCGGTC,-0.0896
15,CTTGAAAA,0.216
16,CAGGCTAA,-0.131
17,CGAAAACA,0.107
18,GTTACCTA,-0.0465
19,CATTAGCC,-0.0736
20,AGCCGACC,-0.292
21,CCACTGAA,0.0641
22,CGTTGAAA,-0.0591

row,Sequence,PBM E-score
1,ACGAGATG,0.0179
2,GCGTAAAA,0.0958
3,ATGCGATG,-0.00846
4,GCTCTCTA,-0.149
5,TCACCAAA,0.326
6,CTTTTAGC,-0.0444
7,GGATGATA,0.125
8,AACTCTAA,0.00936
9,CTGGCCAG,-0.187
10,CTCTAAAC,-0.0277
11,GCGAGCAA,-0.168
12,AACTATTC,0.0444
13,ACTCCACC,-0.0992
14,GGTGGTCA,-0.102
15,TGTGGAAA,0.186
16,ATCTTTTC,0.249
17,AGGCAGAG,-0.0845
18,ATTCCCGC,0.102
19,CCCGCTGA,-0.223
20,AGGAGCCG,-0.0197
21,CCCTATTC,-0.204
22,AGAGAACA,0.195

row,Sequence,PBM E-score
1,ACATAGCC,-0.0756
2,GTTATCGA,-0.0748
3,ACTTAAAA,0.185
4,ATGCGCGC,0.153
5,ACGGTTGC,-0.0609
6,AAGGGGCC,-0.178
7,CTGGCCAA,-0.0734
8,CGGCTATC,-0.0401
9,CACATTCC,-0.0912
10,CCCATAGG,-0.175
11,GTATCAAA,0.148
12,CCTTGGCA,-0.209
13,AAGCCCTA,0.0415
14,CTTAACAC,0.0258
15,CCCTGCAA,-0.0363
16,ACGGGAGT,-0.0995
17,CACCTCGC,-0.189
18,AGTTATTG,0.0718
19,CAAGCGTA,-0.00411
20,AAGCTTGC,-0.0166
21,GGACGCTA,-0.138
22,CCGTAGAA,-0.0325

row,Sequence,PBM E-score
1,ACCGCGAC,0.0329
2,GGCCCATA,-0.154
3,TTAAGAAA,0.114
4,AAAAATAA,0.292
5,CACGTGGG,-0.0725
6,AGAAAATA,0.205
7,CCCGGTCC,-0.304
8,GCTCAAGC,-0.0645
9,ATTCCCGG,0.041
10,AGGTAGAG,-0.201
11,CGGCAGTA,0.0101
12,ACAGCGAC,-0.145
13,TGGCCCCA,-0.31
14,ACTTGGGC,-0.114
15,CCTAAGAG,-0.0395
16,AGAGAACC,-0.218
17,AAATCTTC,0.0186
18,GAATTCCA,0.123
19,ACCTGCCT,-0.0953
20,ATACGGAA,0.145
